# Assay results: the supplement of paper PMC10126150
# Sequences with one replicate were seen in a single cluster, so their values are uncertain.
# System: ATP
# Test: switch fluorescence ratio, 500 uM ATP over buffer (Cy3 cluster intensity, sum of 5 cycles each) (fold (ratio)); higher = stronger signal-on switching upon ATP binding; sequences stand for … in TCGTCGGCAGCGTCAGATGTGTATAAGAGACAGTTTTTTTTTTTTTTTTTTTTTTTTT…TC
# Settings: aptamer strand: ATP DNA aptamer (quencher-CACCTGGGGGAGTATTGCGGAGGAAGG + anchor), 100 nM annealed; ATP concentration: 500 uM; one replicate
# How it was run: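 Values give the fluorescence ratio for each switch-domain sequence, averaged from per-cluster ratios of summed target-cycle to summed buffer-cycle Cy3 intensity. The Cy3-labelled switching-strand clusters sat on a modified Illumina MiSeq flow-cell, were annealed to 100 nM quencher-labelled ATP aptamer, and were imaged in selection buffer, then after 15 min with 500 uM ATP at 22 °C. Five cycles ran with NaOH stripping and re-annealing between them, and clusters outside 100-1000 RFU were excluded.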
# 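Note: ATP exposure 15 min at 22 °C before imaging.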
row,Sequence,switch fluorescence ratio
1,TCGCCTTAAG,0.981
2,GATCTTAAAC,1.04
3,CTCCTTACAC,1.57
4,TCCGAAGAGT,1.24
5,GATGCAACGC,1.09
6,AATTCTTGTT,1.03
7,GGTCAACAGT,1.03
8,TGCTTTTCAG,0.998
9,GAGGAACCAA,1.01
10,TAGGGTTCT,1.02
11,GACATAGTCG,1
12,CGGAAGGTGC,1.38
13,AGATGAATAT,0.996
14,TTTAAGCCGT,1.03
15,ATGATCCTGA,1.06
16,TTTCCGCCTG,1.15
17,CAGTTTGGAG,1.02
18,AAGCTGAATA,1.02
19,GAACTAAATT,1
20,AGAAGTCTTT,0.935
21,GTTTACACC,1.02
22,TCTTCAGTAA,1.26
23,TCTGAGCGGT,1

row,Sequence,switch fluorescence ratio
1,TGCTGGTG,1.03
2,ATTGCTCCAG,1.05
3,TCGTCCAGTC,1.02
4,GAATACAAGG,1.03
5,TGGATGCAA,2.58
6,ACGGATGAGC,0.972
7,GGAATATCTT,0.976
8,CCTTCTGTTA,1.07
9,TTGTGGCCGC,1.02
10,TCCACAGACT,1.26
11,CGAATGCT,1.01
12,GCCCGAAACG,1.03
13,AGTGATATAT,0.998
14,CGCTCTACAG,1.02
15,ATGGCATGCG,0.955
16,AATACGTCTA,1.07
17,CCACTAATTT,0.96
18,ATAGGCTGAG,0.972
19,TATCAAAGAC,0.979
20,GAATTGCAGG,1.03
21,TATTTTAGCC,1.18
22,GATTCCCGCT,1.14
23,TACTATTGA,1.02

row,Sequence,switch fluorescence ratio
1,AATAACTTAT,1.06
2,AGGATTGTAA,0.952
3,TTTTGGCATT,1.03
4,GTCTATGTAG,0.977
5,TAGGAGCAGT,1
6,CGCGCGGCCG,1.1
7,TCCTGGACGC,1.17
8,AGAATGC,1.03
9,CTAGCCGGG,1.11
10,GCCCTTCTAG,0.983
11,CGTCGTAAGA,1.06
12,TAATAGCCAC,1.02
13,AGGTCTTTTT,0.969
14,GAGTCCCCCA,0.998
15,CCGCATTTGG,4.1
16,ATCATATTGT,0.998
17,TACGAACTGG,1.31
18,AAATAGCGTT,1.03
19,TCCGCTTCCA,1.05
20,TCTCGGTGTT,1.25
21,CACTCAGGAT,1.04
22,ACGGGACGTG,0.978
23,GACCGCGAAT,2.08

row,Sequence,switch fluorescence ratio
1,TATTTCTCCT,1.01
2,ACACAGGATA,1.04
3,GGCTCTCAGC,0.969
4,GGAATCCACC,1.04
5,CAGAGCCAT,1.07
6,CACGACTGTT,0.973
7,TAAATCATAG,0.99
8,ACTCCGGCAG,4.12
9,CTCTGAAT,1.05
10,TAATGGTGGA,1.02
11,CTGTTTCCG,0.966
12,ATTAGCAAGC,2.24
13,CATAACCTGG,1.01
14,TCTAGCTTAT,0.99
15,AGATCAGCTT,0.956
16,CTGGAGTGAG,1.04
17,GTCTTGTTG,0.988
18,GACACTTTTG,1.1
19,TTTGGTGAAA,0.974
20,GCATGTCAAT,1
21,AATCGGCTAA,1.01
22,TATAATCTTG,0.971
23,AGCTCAGACA,0.992

row,Sequence,switch fluorescence ratio
1,TATAGCTATA,0.974
2,GCATGCGCCC,1.26
3,GATTTCCAAC,1.03
4,TAAATGCGTC,1.08
5,ATTATCTCA,1
6,TATTTACTCT,0.974
7,TAAGCACGCG,1.03
8,AGTTAGGTAA,1.02
9,TGAGAGTATA,1.05
10,TCTTGCACGT,1.03
11,CAGTAGATTG,0.999
12,CTTGTTTCGT,1.02
13,TTGCGTTGGG,1.02
14,TGTACCATGT,1.02
15,GTTATCCTG,0.975
16,GGCGTTCCTA,1.02
17,CGCCCTTGTA,0.942
18,TTATTAGTGG,1.01
19,TTGGGGTCT,1.05
20,GAAAACCCAA,1.09
21,TGGGGGTCTC,1.02
22,TGCGGAGTTC,1.02
23,TATATAATAT,1

row,Sequence,switch fluorescence ratio
1,GGTACAGTCT,1.02
2,TCTTGGTAA,1.01
3,TTAGACTGGT,1.02
4,TTGCAGGTGC,1.54
5,TTGAAAGAGG,0.994
6,CTCGTTGGA,0.984
7,TGGAGTAGT,1.71
8,TGGACTGGTG,1.03
9,CATTATTCGA,0.971
10,TCTATCTGCT,1.02
11,ACTGGCCCTC,0.988
12,CGTAGAAACA,1.02
13,TCGAGACAAT,1.93
14,GCTGGGCTTT,0.957
15,CAGGTTTCAA,0.992
16,GTAAGTAAGT,1.04
17,GGGTTCTCGT,0.992
18,GGGGCGGTTA,1.03
19,AGTGTATTCT,0.999
20,GATTAAATCA,1.02
21,ATAACCATAC,1.37
22,GTGGTAAATC,0.998
23,TATCGTTATC,0.989

row,Sequence,switch fluorescence ratio
1,AGATTAGTTA,1.01
2,TCTGTGTCGT,1.03
3,GTGATCGCAT,0.946
4,CCGGGCAGCA,2.07
5,CGTCATATAA,1.07
6,ATTGCAACAG,1.06
7,CGTTTTAGAT,0.95
8,CCGGTGAGAA,1.01
9,GAGAAACTGC,1.02
10,AAAAGCCTAC,1.11
11,AGTGCATCGT,1.06
12,GCTTCCGGTG,2.03
13,GATTCATGTG,1.02
14,AACGCGTAGC,1.02
15,GTTGTCAGCC,1.01
16,AAGGGAAGAT,0.997
17,ATCAGGGG,1.2
18,GGCCCACTGT,1.02
19,AAAACGGTTT,1.01
20,CATGTAAGAG,0.977
